Reference: PubChem BioAssay AID588855 (National Center for Advancing Translational Sciences (NCATS), 2011)
The whole screen tested about 410,000 compounds, of which about 5,000 (1.2%) were called active. Inconclusive means that the source gave no clear call. Such entries were picked first, then a sample of the others. Calls come from the whole dose curve; as a rule, active = well fitted inhibition curve with a large enough effect; inconclusive = small, poorly fitted or top-dose-only effect; inactive = no such curve, though single readings can be large or run the other way. Potencies of inconclusive entries are doubtful fits and often do not repeat.

Experiment: qHTS for Inhibitors of TGF-b; note: nearly all actives have a fitted effect of over 65% in size
Settings: HepG2 CAGA-GFP TGF-b/SMAD3 reporter, GFP fluorescence, 18 h, TGF-beta stimulated, 500 pg/mL final; series mostly up to 46.1 µM
Procedure, shortened: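 Using HEPG2 CAGA-GFP reporter cells at 1000 cells/well, we pinned test compounds, stimulated with recombinant TGF-beta (500 pg/mL final) and measured total well GFP after 18 h.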
Potency is the fitted concentration of half-maximal effect; tags give direction and shape of the fitted curve.

Structure (SMILES) | Potency
CCOc1ccc(C(=O)OCc2cc(=O)n3nc(C(C)C)sc3n2)cc1 | inconclusive: 3.55 µM [inhibitor, partial curve, poor fit]
CNc1nc(C)cc(C)c1S(=O)(=O)c1ccc(Cl)cc1 | inconclusive: 22.4 µM [inhibitor, single point]
OC(c1cccc(Cl)c1)c1nc(-c2ccc(Cl)cc2)cs1 (configuration not stated) | active: 12.6 µM
Clc1ccc(SCNc2ccccc2Cl)cc1 | inactive
CN(Cc1ccccc1C(F)(F)F)C(=O)C1CCC(=O)N(CC2CCCCC2)C1 (configuration not stated) | inconclusive: 22.4 µM [inhibitor, single point]
Cc1cccc(CCNC(=O)c2nc(-c3ccc(Cl)cc3)n3c2CCCCC3)c1 | inconclusive: 17.8 µM [inhibitor, partial curve, poor fit]
COc1ccc(Br)cc1CNC(=O)c1cc2c(=O)n(C)c3ccccc3c2s1 | inactive
Cc1cccc(NC(=O)c2nc[nH]c2C(=O)N[C@@H](Cc2ccccc2)C(=O)OCc2ccccc2)c1 | inconclusive: 1.12 µM [inhibitor, full curve, poor fit]
COc1ccccc1N1CCN(C(=O)c2cc3c(=O)n(Cc4cccnc4)ccc3nc2C)CC1 | inconclusive: 35.5 µM [inhibitor, single point]
CC(Oc1ccc2ccccc2c1)C(=O)NNC(=S)NC(=O)c1ccco1 (configuration not stated) | inconclusive: 2.82 µM [inhibitor, full curve]
CCc1sc(N2C(=O)C3C4CCC(C4=C(C)C)C3C2=O)nc1-c1ccccc1 (configuration not stated) | inconclusive: 11.2 µM [inhibitor, single point]
CCC1Oc2ccccc2N(CC(=O)NCc2ccc(C)cc2)C1=O (configuration not stated) | inconclusive: 3.98 µM [inhibitor, partial curve, poor fit]
CC(CCc1ccc(O)cc1)NC(c1ccccc1)c1ccc(Cl)cc1 (configuration not stated) | inconclusive: 20 µM [inhibitor, single point]
CC(=O)N(\C=C/C=C/C=C1\Sc2ccccc2C1=O)c1ccccc1 | inconclusive: 25.1 µM [inhibitor, single point]
COC(=O)c1ccccc1NC(=O)C12CC3CC(C1)CC(n1cnc(Cl)n1)(C3)C2 | inactive
CC1=C(C(=O)OC2CCCC2)C(c2cccc(Cl)c2Cl)CC(=O)N1 (configuration not stated) | inconclusive: 35.5 µM [inhibitor, single point]
O=C(COn1nnc2ccc(C(F)(F)F)cc21)Nc1nnc(-c2ccccc2)o1 | inconclusive: 17.8 µM [inhibitor, single point]
COc1cccc2cc(/C(=N/O)c3ccccc3)oc12 | inconclusive: 35.5 µM [inhibitor, single point]
COc1ccc(-c2nnc(SCc3nnc(-c4ccc(Cl)cc4)o3)n2-c2ccccc2)cc1 | inconclusive: 35.5 µM [inhibitor, single point]
CCOc1ccc(-n2ccnc2SCC(=O)Nc2ccc(OC)cc2OC)cc1 | inactive
O=c1cc(CN(Cc2ccccc2)Cc2ccccc2)c2ccccc2o1 | inconclusive: 10 µM [inhibitor, partial curve, poor fit]

Structure (SMILES) | Potency
COc1ccccc1/C=C/C1C(C(=O)OCC(C)C)=C(C)N=C2SCCC(=O)N21 (configuration not stated) | inactive
CCOC(=O)c1cnc2c(Cl)cccc2c1NCCCN1CCOCC1 | inactive
CCC(=O)N1CCCC(C)(C(=O)Nc2ccc(OC(F)F)cc2)C1 (configuration not stated) | inactive
CCOc1ccc(CNC(=O)c2cnc(SC)nc2C)cc1 | inconclusive: 35.5 µM [inhibitor, single point]
CC(=O)N(CCC(c1ccco1)C(C)C)Cc1ccc(Cl)cc1 (configuration not stated) | inconclusive: 17.8 µM [inhibitor, single point]
O=C(Nc1ccc(Cl)cc1C(F)(F)F)c1cc(S(=O)(=O)NCc2ccccc2)ccc1F | inconclusive: 35.5 µM [inhibitor, single point]
O=C(Nc1ccccc1N1CCN(C(=O)c2ccc(Cl)cc2)CC1)c1ccc([N+](=O)[O-])o1 | inconclusive: 11.2 µM [inhibitor, partial curve]
COc1ccccc1CC(=O)Nc1sc2c(c1C(N)=O)CCCC2 | inconclusive: 3.55 µM [inhibitor, partial curve, poor fit]
Cc1cc(C(=O)CSc2nnc(-c3cccs3)n2Cc2ccccc2)c(C)n1C | inconclusive: 22.4 µM [inhibitor, single point]
CN(C)c1ccc2nc3ccc(=O)cc-3sc2c1 | inconclusive: 20 µM [inhibitor, single point]
COc1cc(-c2cc3nc(NCc4cccc(Cl)c4)ccn3n2)cc(OC)c1OC | inconclusive: 35.5 µM [inhibitor, single point]
O=C(CNc1cccc(S(=O)(=O)N2CCOCC2)c1)N1CCc2ccccc21 | inactive
Cc1ccc(-n2ncc3c2CCCC3NC(=O)CCn2ccnc2C)cc1C (configuration not stated) | inconclusive: 35.5 µM [inhibitor, single point]
C[C@]12c3[nH]c4cc(-c5ccco5)ccc4c3CCN1C(=O)[C@@H](CC(=O)NCCN1CCOCC1)C[C@@H]2C(=O)N1CCCCC1 | inconclusive: 25.1 µM [inhibitor, single point]
Cc1ccc(CN2C(=O)N(c3ccc(C)c(Cl)c3)S(=O)(=O)c3ccccc32)cc1 | inconclusive: 2.24 µM [inhibitor, partial curve, poor fit]
Cc1ccccc1OCC(=O)N/N=C/c1cn(Cc2ccccc2)c2ccccc12 | active: 8.91 µM
CC(C)c1cccc(-c2csc(C(C)(O)c3ccccc3)n2)c1 (configuration not stated) | inconclusive: 35.5 µM [inhibitor, single point]
Cc1ccccc1NC(=O)CN1CCN(C(=O)c2ccco2)CC1 | inactive
Cc1ccccc1-c1nnc(SCC(=O)Nc2c(C)n(C)n(-c3ccccc3)c2=O)o1 | inconclusive: 1 µM [inhibitor, partial curve, poor fit]
O=C1CCC/C(=N/Nc2ccc(Cl)cc2)C1 | inconclusive: 31.6 µM [inhibitor, single point]
COc1cc(/C=N/N2CCN(c3ccccc3OC)CC2)ccc1O | inactive
